In the supplement of paper PMC4967469:
IC50 is the fitted dose that halves viability relative to control wells, and lower means more sensitive; a limit (>, <) means that the fit lies beyond the doses tested. AUC is the area under the same curve over the 256-fold range up to the top dose, as a fraction; values near 1 show little effect. For some of these results: Where the top dose is marked as inferred, it comes from the curve model; the source does not state it.

Assays:
Test in all cases: Viability of human cancer cell lines after 72 h of drug (GDSC screen)
PF-4708671 = compound: CCc1cncnc1N1CCN(Cc2nc3ccc(C(F)(F)F)cc3[nH]2)CC1 [PF-4708671]; details: top dose 10 µM; top dose inferred
Procedure: (§1)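 Human cancer cell lines in 384-well plates, medium with 10% serum, drug for 72 h over a 256-fold dose range (nine 2-fold or five 4-fold steps up to the top dose). Adherent lines were fixed and stained with the nucleic acid dye Syto60, suspension lines read with resazurin; signal relative to control wells, capped at 0 and 100%. One two-parameter sigmoid per drug and line, fitted in a mixed model over all curves with the slope shared within a line.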

I-BET-762 = compound: CCNC(=O)C[C@@H]1N=C(c2ccc(Cl)cc2)c2cc(OC)ccc2-n2c(C)nnc21 [I-BET-762]; details: top dose 20 µM; top dose inferred
Procedure: as §1

Trametinib = compound: CC(=O)Nc1cccc(-n2c(=O)n(C3CC3)c(=O)c3c(Nc4ccc(I)cc4F)n(C)c(=O)c(C)c32)c1 [Trametinib]; details: top dose 1 µM
Procedure: as §1

AV-951 = compound: COc1cc2nccc(Oc3ccc(NC(=O)Nc4cc(C)on4)c(Cl)c3)c2cc1OC [AV-951]; details: top dose 0.128 µM; top dose inferred
Procedure: as §1

MS-275 = compound: Nc1ccccc1NC(=O)c1ccc(CNC(=O)OCc2cccnc2)cc1 [MS-275]; details: top dose 5 µM; top dose inferred
Procedure: as §1

KIN001-244 = compound: O=C(NC(COc1ccc2[nH]c(=O)[nH]c2c1)c1ccccc1)c1cccn(Cc2ccc(F)c(F)c2)c1=O [KIN001-244]; details: top dose 20 µM; top dose inferred
Procedure: as §1

HG-6-64-1 = compound: CCN1CCN(Cc2ccc(NC(=O)c3ccc(C)c(/C=C/c4cnc5[nH]ccc5c4OC)c3)cc2C(F)(F)F)CC1 [HG-6-64-1]; details: top dose 5.12 µM; top dose inferred
Procedure: as §1

| Cell Line | AUC (PF-4708671) | IC50 (PF-4708671) | AUC (I-BET-762) | IC50 (I-BET-762) | AUC (Trametinib) | IC50 (Trametinib) | AUC (AV-951) | IC50 (AV-951) | AUC (MS-275) | IC50 (MS-275) | AUC (KIN001-244) | IC50 (KIN001-244) | AUC (HG-6-64-1) | IC50 (HG-6-64-1) |
| --- | --- | --- | --- | --- | --- | --- | --- | --- | --- | --- | --- | --- | --- | --- |
| JVM-2 (lymphoid neoplasm, suspension) | 0.961 | > 10 µM | 0.788 | 11 µM | 0.876 | > 1 µM | 0.952 | > 0.128 µM | 0.92 | > 5 µM | 0.859 | > 20 µM | 0.897 | > 5.12 µM |
| JVM-3 (lymphoid neoplasm, suspension) | 0.963 | > 10 µM | 0.889 | > 20 µM | 0.766 | 0.374 µM | 0.986 | > 0.128 µM | 0.976 | > 5 µM | 0.917 | > 20 µM | 0.985 | > 5.12 µM |
| JiyoyeP-2003 (Burkitt lymphoma, suspension) | 0.929 | > 10 µM | 0.675 | 3.59 µM | 0.975 | > 1 µM | 0.991 | > 0.128 µM | 0.756 | 1.52 µM | 0.867 | 14.5 µM | 0.791 | 2 µM |
| K5 (thyroid, adherent) | 0.911 | > 10 µM | 0.96 | > 20 µM | 0.077 | < 0.00391 µM | 0.987 | > 0.128 µM | 0.563 | 0.46 µM | 0.816 | 10.5 µM | 0.736 | 1.45 µM |
| KALS-1 (glioma, adherent) | 0.977 | > 10 µM | 0.872 | > 20 µM | 0.408 | 0.0318 µM | 0.976 | > 0.128 µM | 0.568 | 0.514 µM | 0.884 | > 20 µM | 0.728 | 1.85 µM |
| KARPAS-45 (lymphoblastic leukaemia, suspension) | 0.973 | > 10 µM | 0.417 | 0.771 µM | 0.991 | > 1 µM | 0.989 | > 0.128 µM | 0.483 | 0.284 µM | 0.696 | 3.98 µM | 0.655 | 0.795 µM |
| KARPAS-299 (anaplastic large cell lymphoma, suspension) | 0.96 | > 10 µM | 0.928 | > 20 µM | 0.991 | > 1 µM | 0.99 | > 0.128 µM | 0.612 | 0.598 µM | 0.904 | 18.8 µM | 0.976 | > 5.12 µM |
| KARPAS-422 (B-cell lymphoma, suspension) | 0.988 | > 10 µM | 0.675 | 3.81 µM | 0.973 | > 1 µM | 0.979 | > 0.128 µM | 0.724 | 1.33 µM | 0.794 | 9.08 µM | 0.894 | > 5.12 µM |
| KE-37 (lymphoblastic leukaemia, suspension) | 0.974 | > 10 µM | 0.574 | 1.89 µM | 0.994 | > 1 µM | 0.99 | > 0.128 µM | 0.617 | 0.606 µM | 0.509 | 1.32 µM | 0.616 | 0.614 µM |
| KELLY (neuroblastoma, adherent) | 0.989 | > 10 µM | 0.802 | 8.82 µM | 0.646 | 0.152 µM | 0.989 | > 0.128 µM | 0.753 | 1.54 µM | 0.846 | 12.6 µM | 0.882 | 4.58 µM |
| KG-1 (acute myeloid leukaemia, suspension) | 0.965 | > 10 µM | 0.561 | 1.8 µM | 0.893 | 0.969 µM | 0.959 | > 0.128 µM | 0.783 | 1.87 µM | 0.879 | 16.7 µM | 0.475 | 0.275 µM |
| KGN (ovary, adherent) | 0.905 | > 10 µM | 0.498 | 1.23 µM | 0.776 | 0.486 µM | 0.969 | > 0.128 µM | 0.718 | 1.5 µM | 0.794 | 11.5 µM | 0.581 | 0.561 µM |
| KINGS-1 (glioma, adherent) | 0.939 | > 10 µM | 0.917 | > 20 µM | 0.791 | 0.653 µM | 0.973 | > 0.128 µM | 0.784 | 3.03 µM | 0.847 | > 20 µM | 0.653 | 1 µM |
| KM12 (large intestine, adherent) | 0.964 | > 10 µM | 0.87 | > 20 µM | 0.869 | > 1 µM | 0.955 | > 0.128 µM | 0.738 | 1.6 µM | 0.907 | > 20 µM | 0.726 | 1.5 µM |
| KM-H2 (Hodgkin lymphoma, suspension) | 0.809 | 4.27 µM | 0.992 | > 20 µM | 0.992 | > 1 µM | 0.986 | > 0.128 µM | 0.764 |  | 0.873 | 14.4 µM | 0.893 | 4.44 µM |
| KMOE-2 (acute myeloid leukaemia, suspension) | 0.973 | > 10 µM | 0.622 | 2.61 µM | 0.028 | < 0.00391 µM | 0.989 | > 0.128 µM | 0.777 | 1.8 µM | 0.824 | 10.2 µM | 0.798 | 2.15 µM |
| KNS-42 (glioma, adherent) | 0.946 | > 10 µM | 0.946 | > 20 µM | 0.964 | > 1 µM | 0.982 | > 0.128 µM | 0.949 | > 5 µM | 0.929 | > 20 µM | 0.711 | 1.43 µM |
| KNS-81-FD (glioma, adherent) | 0.892 | > 10 µM | 0.894 | > 20 µM | 0.728 | 0.359 µM | 0.968 | > 0.128 µM | 0.836 | > 5 µM | 0.9 | > 20 µM | 0.942 | > 5.12 µM |
| KS-1 (glioma, adherent) | 0.941 | > 10 µM | 0.827 | 16.5 µM | 0.336 | 0.0194 µM | 0.979 | > 0.128 µM | 0.654 | 0.93 µM | 0.896 | > 20 µM | 0.701 | 1.37 µM |
